Laboratory results taken from PubChem BioAssay AID1405 (National Center for Advancing Translational Sciences (NCATS), 2008).
Some of the results follow. These are further read-outs of the screen, such as a control signal, another cell line or another target. No call is given for them. The list favours compounds with an active or inconclusive main result. Words in brackets tell the shape of the fitted curve; partial curves, single points and poor fits give uncertain potencies.

Experiment: Confirmation and Secondary Assays for Modulators of Hemoglobin Beta Chain Splicing at IVS2 654 and 705 loci
Settings: HeLa beta-globin IVS2-654 splicing GFP reporter, 48 h
Source text: NIH Chemical Genomics Center [NCGC]
NIH Molecular Libraries Screening Centers Network [MLSCN]
PI Name: Dr. Ryszard Kole
Modulation of Alternative Splicing as Therapy
Abnormal splicing is associated with a number of diseases, including cancer and genetic diseases such as cystic fibrosis, muscular dystrophy and beta-thalassemia. Alteration of disease associated splicing patterns provides a promising target for treatment. […] Mutations in the second intron of the b-globin gene at positions 654 or 705 are clinically relevant and cause mis-splicing which results in an out of frame gene product.
EGFP-654 HeLa Cells as screen system.
(§1) HeLa cell lines were stably transfected with a construct in which the EGFP (enhanced green fluorescent protein) cDNA was interrupted by the second intron of the beta-globin gene (IVS2-654). The ISV2 intron contains mutations which cause mis-splicing of EGFP and premature termination of EGFP which results in a nonfluorescent protein product. […] Expression of the transgene was driven by the CMV promoter. We concluded that a low molecular weight compound, which restored correct splicing of intron 2 would also generate functional EGFP protein, resulting in a fluorescent signal. Thus, the HeLa cells that express the EGFP-654 construct can be used for high throughput screening of a chemical library.
EGFP-705 HeLa Cells as screen system.
as §1, with “(IVS2-705).” for “(IVS2-654).”, “EGFP-705” for “EGFP-654”, “validation of splice site specificity of compounds identified in primary” for “high throughput”, “the ISV2 654 construct.” for “a chemical library.”
NCGC Assay Protocol Summary:
Confirmatory Screening. Freshly thawed HeLa EGFP-654 or EGFP-705 cells were seeded in 5 ul of optimem media (Invitrogen) containing 2 % fetal calf serum (Hyclone) and 1x penicillin/streptomycin (Invitrogen) at a concentration of 500 cells per well in 1536-well plates. Cells were incubated overnight at 37C in 5% CO2. The next day, cells were treated with DMSO, 500 nM antisense ISV2 654 (or 705) PNA control oligo, or library compound and allowed to grow at 37C in 5% CO2 for 2 days. The PNA oligo blocked the mutation site in the intron and allowed proper (wild type) splicing to occur, resulting in full length EGFP expression and also allowed for optimization of the assay parameters. Plates were read in the Acumen Explorer (TTP Labtech) using 488 nm laser excitation and 500-520 nm emission PMT filter in a 1 x 8 uM capture mode, and were read immediately after compound pinning (beta-globin-654-gfp-0hr), at 24 hours (beta-globin-654-gfp-24hr and beta-globin-705-gfp-24hr), and at 48 hours (beta-globin-654-gfp-48hr and beta-globin-705-gfp-48hr). Fluorescnet objects ranging in size from 5 to 250 uM were measured and the total peak GFP intensity for each well was used for data analysis. Cell death was measured by quantitating protease release by sick and dying cells using Promega's luminescent Cytotox-Glo reagent. Cells were treated with 2ul of Cytotox- Glo reagent incubated at room temperature for 5 minutes and read in the Viewlux plate reader with a 30 second integration time (beta-globin-654-protease-48hr and beta-globin-705-protease-48hr).
Keywords: Thalassemia, beta-thalassemia, beta-globin, EGFP, ISV2 654, ISV2 705, SSO, PNA, antisense, splicing, MLSMR, MLSCN, NIH Roadmap, qHTS, NCGC

[1] = measured here: IVS2-654 protease reporter 48 h
[2] = measured here: IVS2-705 protease reporter 48 h
[3] = measured here: IVS2-705 GFP reporter 24 h
[4] = measured here: IVS2-705 GFP reporter 48 h

Row | Structure (SMILES) | AC50 [1] | AC50 [2] | AC50 [3] | AC50 [4]
1 | CSc1ncnc2c1ncn2C1OC(CO)C(O)C1O (configuration not stated) | 3.98 µM [rising, full curve] | 7.94 µM [rising, full curve] |  | 
2 | Nc1nc(=S)c2ncn([C@H]3O[C@@H](CO)[C@@H](O)[C@@H]3O)c2[nH]1 | 2.24 µM [rising, full curve] | 1.58 µM [rising, full curve, poor fit] | 12.6 µM [rising, full curve] | 4.47 µM [rising, full curve]
3 | Nc1nc2n[nH]nc2c(=O)[nH]1 | 7.08 µM [rising, full curve] |  | 31.6 µM [rising, single point] | 7.94 µM [rising, full curve]
4 | OCC1OC(n2cnc3c(=S)nc[nH]c32)C(O)C1O (configuration not stated) | 2.24 µM [rising, full curve] |  |  | 2 µM [rising, full curve]
5 | Nc1nc(=S)c2[nH]cnc2[nH]1 | 1.26 µM [rising, full curve] | 1.41 µM [rising, full curve] | 14.1 µM [rising, full curve] | 7.08 µM [rising, full curve]
6 | Nc1nc(Cl)nc2c1ncn2[C@@H]1O[C@H](CO)[C@@H](O)[C@H]1O | 31.6 µM [rising, single point] |  |  | 
7 | CCn1c(C)nc([N+](=O)[O-])c1Sc1ncnc2nc[nH]c12 | 3.16 µM [rising, full curve] |  |  | 3.16 µM [rising, full curve]
8 | S=C1NC=NC2N=CNC12 (configuration not stated) | 2 µM [rising, full curve] |  |  | 2 µM [rising, full curve]
9 | Cn1cnc([N+](=O)[O-])c1Sc1ncnc2nc[nH]c12 | 2.24 µM [rising, full curve] |  |  | 3.55 µM [rising, full curve]
